{"source": "PubChem BioAssay (NCI)", "assay_in_all_cases": "NCI tumour cell line growth inhibition, 48 h", "key": {"CCRF-CEM leukemia": {"test_system": "CCRF-CEM leukemia"}, "UACC-257 melanoma": {"test_system": "UACC-257 melanoma"}, "SR leukemia": {"test_system": "SR leukemia"}, "HOP-92 NSCLC": {"test_system": "HOP-92 NSCLC"}, "NCI-H226 lung": {"test_system": "NCI-H226 lung"}, "NCI-H23 lung": {"test_system": "NCI-H23 lung"}}, "note": "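Exposure lasted 48 hours, with cells grown in 96-well plates and compounds tested at five concentrations. The concentration for 50% growth inhibition is given as GI50. TGI: concentration producing complete growth inhibition.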 Activity calls are given as the source filed them."}
{"smiles": "O=C1NC(=O)C(c2cccc([N+](=O)[O-])c2)=C1Nc1cc(Cl)c(O)c(Cl)c1", "values": [{"measurement": "GI50", "setting": "CCRF-CEM leukemia", "result": "inactive"}, {"measurement": "TGI", "setting": "CCRF-CEM leukemia", "result": "> 25", "unit": "µM"}, {"measurement": "GI50", "setting": "UACC-257 melanoma", "result": "> 25", "unit": "µM"}, {"measurement": "TGI", "setting": "UACC-257 melanoma", "result": "> 25", "unit": "µM"}, {"measurement": "GI50", "setting": "SR leukemia", "result": "> 25", "unit": "µM"}, {"measurement": "TGI", "setting": "SR leukemia", "result": "> 25", "unit": "µM"}, {"measurement": "GI50", "setting": "HOP-92 NSCLC", "result": "> 25", "unit": "µM"}, {"measurement": "TGI", "setting": "HOP-92 NSCLC", "result": "> 25", "unit": "µM"}, {"measurement": "GI50", "setting": "NCI-H226 lung", "result": "> 25", "unit": "µM"}, {"measurement": "TGI", "setting": "NCI-H226 lung", "result": "> 25", "unit": "µM"}, {"measurement": "GI50", "setting": "NCI-H23 lung", "result": "> 25", "unit": "µM"}, {"measurement": "TGI", "setting": "NCI-H23 lung", "result": "> 25", "unit": "µM"}]}
